# From PubChem BioAssay AID485344 (National Center for Advancing Translational Sciences (NCATS), 2010)
# The campaign covered roughly 340,000 compounds. About 6,900 (2%) were called active. No stated cut-off is given here; in the data, active means inhibition above about 30%; inactive means below that, where a call was filed. Only a part is listed here, and it is no random draw. The source gives no active or inactive call for entries shown without one.
# Molecular target: D(2) dopamine receptor (Homo sapiens) (UniProt P14416)
# Test: HTS Assay for Allosteric Antagonists of the Human D2 Dopamine Receptor: Primary Screen for Antagonists; further: 0% is about no effect
# Settings: HEK293 TREx D2 cells, calcium flux, dopamine EC80; at 10 µM; stronger effect = higher value
# How it was run: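 Inhibition of EC80 dopamine-driven calcium flux, recorded kinetically, defines activity here; cells are a tetracycline-induced HEK293 T-REx line expressing force-coupled D2.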
# Sequence of UniProt P14416 (P14416 whole entry, looked up): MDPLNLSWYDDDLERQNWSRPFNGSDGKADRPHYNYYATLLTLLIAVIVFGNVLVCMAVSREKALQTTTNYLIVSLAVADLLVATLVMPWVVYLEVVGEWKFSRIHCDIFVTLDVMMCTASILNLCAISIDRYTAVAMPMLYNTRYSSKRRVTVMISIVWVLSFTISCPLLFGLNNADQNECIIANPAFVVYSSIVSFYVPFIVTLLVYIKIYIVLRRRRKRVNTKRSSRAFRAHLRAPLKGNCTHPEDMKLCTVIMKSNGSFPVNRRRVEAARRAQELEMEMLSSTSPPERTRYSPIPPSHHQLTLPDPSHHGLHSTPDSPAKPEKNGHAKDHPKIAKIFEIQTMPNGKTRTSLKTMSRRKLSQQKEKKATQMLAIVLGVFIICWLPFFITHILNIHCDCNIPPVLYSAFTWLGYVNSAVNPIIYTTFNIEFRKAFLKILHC
row,Compound,inhibition
1,COC(=O)C1=C(c2ccccc2)c2ccccc2S(=O)(=O)N1CC(=O)Nc1ccc(OC)cc1OC,-4.18%
2,Cc1cc(=O)[nH]c2nnc(SCc3ccc(Cl)cc3)n12,-18.9%
3,CCOc1ccc(Nc2nc(C)c(NC(=O)c3cccc(OC)c3)c(Nc3ccc(OCC)cc3)n2)cc1,14%
4,Cc1ccccc1CSc1nc2cccnc2n1Cc1ccc(C(=O)NC2CC2)cc1,-2.68%
5,COc1ccc(CNC(=O)C2CCC(CNS(=O)(=O)c3cccs3)CC2)cc1 (stereo not given),7.07%
6,CCOC(=O)c1ccccc1NC(=O)CSc1cn(CC(=O)N2CCOCC2)c2ccccc12,3%
7,Cc1ccc(N2CCN(S(=O)(=O)c3nnc(NC(=O)c4ccc(C(C)C)cc4)s3)CC2)cc1,7.17%
8,Cc1ccc(-c2nc(S(=O)(=O)c3ccc(C)cc3)c(N3CCCCCC3)o2)cc1,-5.54%
9,CCN(CC)CCn1c(NS(=O)(=O)c2ccc(C)cc2)nc2ccccc21,active: 51.4%
10,CCOc1ccc(NC(=O)Cn2c(=O)cc(C)c3c(C)nn(-c4cccc(Cl)c4C)c32)cc1,6.94%
11,Cc1cnc(C(=O)Nc2ccc(S(=O)(=O)NCC(C)C)cc2)cn1,active: 35.8%
12,Cn1c(=O)[nH]c(=O)c2c1nc1n2CCN1c1ccccc1,22.9%
13,Cc1nn(-c2ccc(N3CCCC3)nn2)c(C)c1CCC(=O)NCc1ccc(OC(C)C)cc1,-16%
14,CCOc1ccc(C(=O)N2CCN(CCc3ccccn3)CC2)cc1,10.4%
15,CCOc1ccc(S(=O)(=O)c2cn(Cc3ccc(OC)cc3)c3ccc(F)cc3c2=O)cc1,-1%
16,CC(C)c1ccc(NC(=O)CCNS(=O)(=O)c2ccc3c(c2)CCCC(=O)N3)cc1,1.84%
17,CCOC(=O)CC(NC(=O)CCc1c(C)nc2ncnn2c1C)c1ccc(OC(C)C)cc1 (stereo not given),-1.38%
18,CCOC(=O)C1=C(CN(CC)Cc2ccccc2)NC(=O)NC1c1ccc(OC(C)C)cc1 (stereo not given),18.8%
19,COc1ccccc1CNC(=O)c1ccc(N2CCCC2)c(NC(=O)NCc2ccc(F)cc2)c1,-6.54%
20,CCCCSCCCNC(=O)C1CCN(Cc2nc(-c3cccc(Br)c3)oc2C)CC1,-5.04%

row,Compound,inhibition
1,Cn1cc(CN2CCN(c3ccccc3)CC2)c2ccccc21,active: 80.9%
2,O=C(Cn1ncc2c3ccccc3n(Cc3ccccc3F)c2c1=O)N1CCCCC1,15.7%
3,CC(C)CN(CCCNC(=O)CN1N=C(c2ccccc2)CCC1=O)CC(C)C,11.8%
4,CCOc1ccc(CCNC(=O)c2[nH]c3cc(OC)ccc3c2Sc2ccccc2)cc1OCC,12.9%
5,CC(=O)c1cc2c(cc1NC(=O)c1cnn(-c3ccc(C)cc3)c1-n1cccc1)OCO2,7.42%
6,O=C(NCCC1=CCCCC1)c1ccc2c(c1)N(Cc1cccc(Cl)c1)C(=O)c1ccccc1S2(=O)=O,12.2%
7,COc1ccc(N2CCN(c3ccc(-c4nc(-c5cccc(C)c5)no4)cc3[N+](=O)[O-])CC2)cc1,13.6%
8,COc1ccc(OC)c(S(=O)(=O)N2CCN(c3c(C)cccc3C)CC2)c1,active: 35.7%
9,Cc1cc(C)c(NC(=O)CSc2nc(-c3ccc(F)cc3)nc3c2Cc2c(CO)cnc(C)c2O3)c(C)c1,10.2%
10,CCOc1cc(C)c(Cl)cc1S(=O)(=O)N(C)C,active: 48.7%
11,CCN1CCN(c2nc3ccccn3c(=O)c2/C=C(\C#N)S(=O)(=O)c2ccccc2)CC1,active: 33.6%
12,COc1ccc(S(=O)(=O)N(CC(=O)Nc2cccc(C)c2)c2ccc(C)cc2)cc1OC,4.04%
13,CC1CCN(S(=O)(=O)c2ccc3c(c2)N(CC(=O)O)C(=O)CO3)CC1,4.06%
14,CCOC(=O)c1ccccc1NC(=O)N1CCOc2ccc(Cl)cc21,8.99%
15,OC1CCN(Cc2ccc3ccccc3c2)CC1,active: 45.6%
16,Cc1cc(Cl)ccc1NC(=O)C1CCN(c2nnc(-n3c(C)ccc3C)s2)CC1,-5.04%
17,COc1ccc(-c2cc(C(F)(F)F)n3nc(C(=O)NCC45CC6CC(CC(C6)C4)C5)cc3n2)cc1OC,-8.04%
18,CCc1ccccc1NC(=O)CSc1nc2c(oc3ccccc32)c(=O)n1-c1ccccc1F,-4.21%
19,CC(=O)Nc1ccc(-c2nnc(SCC(=O)c3ccc([N+](=O)[O-])cc3)o2)cc1,0.488%
20,Cc1ccc2ccc3cc(C(=O)N4CCN(c5ccccc5)CC4)nc3c2[nH]1,6.68%

row,Compound,inhibition
1,COc1ccc(CCN(C)CC(O)COc2ccc(C(C)=O)cc2OC)cc1OC (stereo not given),active: 36%
2,Cc1ccc(NC(=O)C(=O)NCC(c2cccnc2)N2CCN(Cc3ccccc3)CC2)cc1 (stereo not given),0.307%
3,O=S(=O)(NCc1ccccc1Cl)c1ccc(N2CCCCS2(=O)=O)cc1,6.55%
4,CCCCN(C)CCNC(=O)c1ccc2c(c1)NC(=O)CN2,-19.9%
5,Cc1cccn2c(=O)c3cc(C(=O)N(Cc4ccccc4)C(C)C)sc3nc12,13.4%
6,Cc1c(C(=O)NCCc2ccc(S(N)(=O)=O)cc2)sc2nc3n(c(=O)c12)CCCC3,9.1%
7,Fc1ccccc1-n1ncc2c1ncn1nc(Cc3ccccc3)nc21,8.47%
8,Cc1ccccc1NC(=O)CN(c1ccc(Cl)cc1Cl)S(=O)(=O)c1ccccc1,5.69%
9,Cc1cn(C)c(CC(=O)N2CCN(c3ccccc3F)CC2)c1C(=O)O,-11.1%
10,COc1ccc(-c2nc3sc(CCNC(=O)c4ccccc4C)c(C)n3n2)cc1,-23.5%
11,CC(CNC(=O)CCS(=O)(=O)c1ccc2c(c1)oc(=O)n2C)c1ccccc1 (stereo not given),-0.937%
12,Cc1ccc2c(c1)-c1c(c(C(=O)N3CCN(c4cc(Cl)ccc4C)CC3)nn1C)CS2,5.06%
13,COc1ccc(OC)c(S(=O)(=O)N2CC=C(c3c(C)n(CC(=O)N4CCCC4)c4ccccc34)CC2)c1,-7.24%
14,CCOc1ccc(C2C(C(=O)Nc3ccc(Cl)cc3)=C(C)Nc3nc(C(F)(F)F)nn32)cc1 (stereo not given),-5.05%
15,CSCC(C)N1CCC(n2nccc2NC(=O)c2ccc3c(c2)OCO3)CC1 (stereo not given),active: 58.3%
16,O=S(=O)(c1ccc(Cl)cc1)c1nnn2c1nc(N1CCCCC1)c1sccc12,14.4%
17,CC(=O)N1CCc2cc(Br)cc(S(=O)(=O)N3CCN(c4cccc(C)c4)C(C)C3)c21 (stereo not given),-2.44%
18,COc1ccc(N2CCN(C(=O)CS(=O)(=O)c3cccc4nsnc34)CC2)cc1,27.3%
19,CCCCN1CCc2nc(N3CCN(C)CC3)ncc2C1,-19%
20,O=C(NCCc1csc(-c2cccnc2)n1)c1ccc(F)c(F)c1,-2.98%
